Publication PMC3616983
These are yes or no findings as the source states them, for the method shown. Some binding calls cover weakened binding; strength is not graded here.

Sequences of proteins named here, by UniProt entry; tags and fusion partners are left off.
UniProt Q7L804: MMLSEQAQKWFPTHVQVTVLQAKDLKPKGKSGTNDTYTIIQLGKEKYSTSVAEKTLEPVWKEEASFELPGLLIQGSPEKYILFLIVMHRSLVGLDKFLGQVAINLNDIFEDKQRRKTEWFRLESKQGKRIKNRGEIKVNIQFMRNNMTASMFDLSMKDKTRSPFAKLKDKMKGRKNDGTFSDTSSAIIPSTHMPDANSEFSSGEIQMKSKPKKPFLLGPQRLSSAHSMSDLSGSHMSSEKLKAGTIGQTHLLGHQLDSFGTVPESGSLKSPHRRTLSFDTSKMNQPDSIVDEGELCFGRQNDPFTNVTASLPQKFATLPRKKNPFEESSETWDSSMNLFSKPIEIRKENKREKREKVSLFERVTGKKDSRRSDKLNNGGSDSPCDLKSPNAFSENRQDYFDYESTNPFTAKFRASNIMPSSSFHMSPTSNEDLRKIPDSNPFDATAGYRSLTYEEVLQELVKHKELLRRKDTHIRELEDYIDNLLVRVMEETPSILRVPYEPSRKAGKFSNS
UniProt P61006: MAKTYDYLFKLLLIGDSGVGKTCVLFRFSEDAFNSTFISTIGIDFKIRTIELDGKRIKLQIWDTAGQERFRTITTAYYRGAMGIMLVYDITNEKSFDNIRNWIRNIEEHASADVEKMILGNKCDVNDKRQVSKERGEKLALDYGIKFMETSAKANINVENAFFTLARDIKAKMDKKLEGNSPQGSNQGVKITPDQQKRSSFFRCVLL
UniProt P62491: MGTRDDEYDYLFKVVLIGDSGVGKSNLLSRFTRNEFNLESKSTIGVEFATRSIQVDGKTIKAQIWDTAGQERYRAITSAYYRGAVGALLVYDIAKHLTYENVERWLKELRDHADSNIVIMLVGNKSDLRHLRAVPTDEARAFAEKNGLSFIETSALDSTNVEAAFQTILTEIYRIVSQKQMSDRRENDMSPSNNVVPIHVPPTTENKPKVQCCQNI

Legend:
Test in all cases: two-hybrid; split-ubiquitin yeast two-hybrid; Rab11-FIP proteins in CCW vectors, Rab proteins in DSL vectors; consistent over three separate experiments
[1] = molecular target: T1, Rab11-FIP1B (UniProt Q6WKZ4)
T1 sequence: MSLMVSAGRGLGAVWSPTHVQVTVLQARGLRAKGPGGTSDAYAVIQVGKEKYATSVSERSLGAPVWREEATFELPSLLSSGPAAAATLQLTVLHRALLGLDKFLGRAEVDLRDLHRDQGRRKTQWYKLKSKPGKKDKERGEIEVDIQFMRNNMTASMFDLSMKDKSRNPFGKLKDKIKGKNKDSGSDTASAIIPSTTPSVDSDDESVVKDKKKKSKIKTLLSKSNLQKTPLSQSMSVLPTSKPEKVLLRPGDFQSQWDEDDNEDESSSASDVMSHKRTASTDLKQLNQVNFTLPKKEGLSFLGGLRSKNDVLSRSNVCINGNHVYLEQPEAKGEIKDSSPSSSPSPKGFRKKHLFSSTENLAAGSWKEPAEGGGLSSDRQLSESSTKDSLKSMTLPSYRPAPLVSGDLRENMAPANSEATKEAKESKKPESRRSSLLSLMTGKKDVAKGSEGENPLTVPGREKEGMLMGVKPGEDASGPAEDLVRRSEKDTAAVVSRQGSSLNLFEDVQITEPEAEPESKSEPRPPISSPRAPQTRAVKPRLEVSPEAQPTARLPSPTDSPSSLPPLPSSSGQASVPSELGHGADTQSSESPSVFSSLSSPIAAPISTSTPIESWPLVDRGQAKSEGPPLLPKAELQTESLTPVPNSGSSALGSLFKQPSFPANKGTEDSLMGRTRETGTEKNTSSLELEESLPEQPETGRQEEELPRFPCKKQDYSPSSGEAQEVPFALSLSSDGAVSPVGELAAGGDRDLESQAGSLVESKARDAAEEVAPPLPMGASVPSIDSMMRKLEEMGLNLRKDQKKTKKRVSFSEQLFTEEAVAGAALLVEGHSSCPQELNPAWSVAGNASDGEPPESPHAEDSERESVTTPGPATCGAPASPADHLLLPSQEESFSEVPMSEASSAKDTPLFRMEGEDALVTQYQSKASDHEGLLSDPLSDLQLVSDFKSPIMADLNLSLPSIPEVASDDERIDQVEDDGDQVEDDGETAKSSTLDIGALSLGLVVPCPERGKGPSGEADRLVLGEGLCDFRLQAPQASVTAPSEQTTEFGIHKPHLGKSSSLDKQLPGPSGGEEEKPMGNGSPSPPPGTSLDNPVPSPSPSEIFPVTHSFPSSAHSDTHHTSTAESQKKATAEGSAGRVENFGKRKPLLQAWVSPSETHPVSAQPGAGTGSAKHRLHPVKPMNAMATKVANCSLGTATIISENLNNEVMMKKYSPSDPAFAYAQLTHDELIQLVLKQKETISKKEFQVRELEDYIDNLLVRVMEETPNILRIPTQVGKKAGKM

[2] = molecular target: T2, Rab11-FIP1C/RCP (UniProt Q6WKZ4)
T2 sequence: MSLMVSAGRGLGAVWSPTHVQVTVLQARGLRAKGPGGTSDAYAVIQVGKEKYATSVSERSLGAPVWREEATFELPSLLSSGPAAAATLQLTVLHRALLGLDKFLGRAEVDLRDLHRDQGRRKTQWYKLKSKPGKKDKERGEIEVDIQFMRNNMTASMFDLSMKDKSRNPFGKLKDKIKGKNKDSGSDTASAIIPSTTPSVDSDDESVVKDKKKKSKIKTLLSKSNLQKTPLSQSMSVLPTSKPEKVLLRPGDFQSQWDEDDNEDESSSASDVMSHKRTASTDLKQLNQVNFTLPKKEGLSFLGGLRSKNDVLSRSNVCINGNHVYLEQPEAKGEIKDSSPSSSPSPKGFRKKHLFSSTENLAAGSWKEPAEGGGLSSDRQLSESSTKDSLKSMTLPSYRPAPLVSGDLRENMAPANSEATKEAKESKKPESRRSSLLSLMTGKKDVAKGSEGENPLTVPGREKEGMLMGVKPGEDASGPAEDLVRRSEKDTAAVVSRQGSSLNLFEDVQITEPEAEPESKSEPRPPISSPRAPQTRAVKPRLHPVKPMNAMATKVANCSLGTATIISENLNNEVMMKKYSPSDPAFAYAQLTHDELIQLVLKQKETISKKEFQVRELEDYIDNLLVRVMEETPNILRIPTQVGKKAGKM

[3] = molecular target: Rab11-FIP2 (UniProt Q7L804)

Row | Substance | binding [1] | binding [2] | binding [3]
1 | Rab8a (from UniProt P61006 1-207) | no binding | no binding | no binding
2 | Rab11a (from UniProt P62491 1-216) | binds | binds | binds
